From the supplement of paper PMC12217912
The list shows a part of the results. The full chains were built here from the parent and the listed change. Values near 0.05 are background.

B1: TEV protease; numbered along this chain (parent)
chain: MGESLFKGPRDYNPISSSICHLTNESDGHTTSLYGIGFGPFIITNKHLFRRNNGTLVVQSLHGVFKVKDTTTLQQHLVDGRDMIIIRMPKDFPPFPQKLKFREPQREERICLVTTNFQTKSMSSMVSDTSCTFPSGDGIFWKHWIQTKDGQCGSPLVSTRDGFIVGIHSASNFTNTNNYFTSVPKNFMELLTNQEAQQWVSGWRLNADSVLWGGHKVFMVKPEEPFQPVKEATQL

Variants of: B1
Test: raw area under fraction-flipped curve 0-4 h after induction (AUC4h, not background-subtracted), DNA-recorder readout of cleavage of the substrate (dimensionless); higher = more cleavage of the substrate by the protease variant
Details: temperature: 34 °C; time window: 0-4 h after rhamnose induction
Experimental: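 In vivo DNA recorder in E. coli TOP10(DE3) ΔrhaA at 34 °C. Each TEVp single-site mutant (parent TEVp 0) is paired with a single-site variant of the 7-mer TEVs (canonical ENLYFQ|S). The substrate sits between flexible linkers in a Bxb1-sfGFP-TEVs-SsrA fusion, so cleavage stabilises Bxb1 and speeds flipping of a recombination array, read by NGS. The value is the raw area under the fraction-flipped curve over 0-4 h after rhamnose induction (AUC4h), with ≥20 reads per time point. It is not background-subtracted; inactive controls average about 0.047.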
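Further: Bxb1 expression induced with 0.2% (w/v) L-rhamnose at OD600 near 0.5, cultures sampled hourly, flipped fraction per protease–substrate barcode pair counted by paired-end Illumina sequencing.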

| Variant | area with substrate ENLYFQA | area with substrate ENLYFQC | area with substrate ENLYFQD | area with substrate ENLYFQE | area with substrate ENLYFQF | area with substrate ENLYFQI | area with substrate ENLYFQN | area with substrate ENLYFQQ | area with substrate ENLYFQR | area with substrate ENLYFQS | area with substrate ENLYFQT | area with substrate ENLYFQY | area with substrate ENLYFQG | area with substrate ENLYFQH | area with substrate ENLYFQK | area with substrate ENLYFQL | area with substrate ENLYFQP | area with substrate ENLYFQW | area with substrate ENLYFQM | area with substrate ENLYFQV |
| --- | --- | --- | --- | --- | --- | --- | --- | --- | --- | --- | --- | --- | --- | --- | --- | --- | --- | --- | --- | --- |
| F180A | 0.0827 | 0.136 | 0.0701 | 0.0532 | 0.07 | 0.0536 | 0.0429 | 0.061 | 0.0516 | 0.0797 | 0.0562 | 0.0641 | – | – | – | – | – | – | – | – |
| I145W | 0.0632 | 0.0666 | 0.0468 | – | 0.031 | – | 0.0537 | – | 0.0588 | 0.0569 | – | – | 0.0467 | 0.045 | 0.0537 | 0.0539 | 0.0542 | 0.0486 | – | – |
| D161E | 0.0801 | 0.0832 | 0.0538 | – | – | 0.0532 | 0.0645 | – | 0.0599 | 0.079 | 0.0576 | 0.0679 | 0.0852 | 0.0593 | 0.058 | 0.0563 | 0.0611 | 0.0526 | 0.0748 | – |
| L190E | 0.0953 | 0.102 | 0.0617 | – | 0.0777 | 0.0735 | 0.0808 | 0.0554 | 0.0581 | 0.0993 | 0.0658 | 0.0773 | – | – | 0.0534 | 0.0575 | – | 0.0692 | 0.106 | 0.0599 |
| A196Y | 0.106 | 0.13 | – | – | 0.0798 | 0.0683 | 0.089 | – | 0.0601 | 0.11 | 0.102 | – | 0.106 | 0.0877 | 0.0667 | 0.0566 | – | 0.0696 | – | – |
| A196T | 0.0911 | 0.122 | – | – | 0.0678 | 0.059 | 0.0725 | – | 0.0543 | 0.0946 | 0.0626 | 0.072 | – | – | 0.071 | 0.057 | 0.0759 | 0.06 | 0.0824 | – |
| F173G | 0.078 | 0.106 | – | – | – | 0.0768 | 0.059 | – | 0.0505 | 0.0842 | – | – | – | – | 0.0704 | – | – | 0.0669 | 0.0675 | 0.0571 |
| S158W | 0.0515 | 0.0492 | 0.0577 | – | 0.0524 | 0.0409 | – | 0.0588 | 0.0559 | 0.0517 | 0.0542 | 0.0412 | 0.0478 | 0.0438 | 0.0559 | 0.0488 | 0.0487 | – | 0.0528 | 0.0525 |
| S158M | 0.0614 | 0.0574 | 0.0416 | 0.0489 | 0.0549 | 0.0531 | 0.0552 | – | 0.0484 | 0.0548 | 0.057 | 0.0569 | 0.0564 | 0.0598 | 0.0607 | 0.0529 | 0.045 | 0.048 | 0.0569 | – |
| S158R | 0.0399 | 0.0506 | – | – | 0.0265 | – | – | – | 0.0533 | 0.0523 | – | – | 0.0515 | – | 0.049 | 0.034 | 0.0417 | 0.0646 | – | 0.0539 |
| Q194K | 0.0862 | – | – | – | – | 0.0428 | – | – | 0.0619 | 0.109 | 0.0652 | 0.0768 | 0.0901 | – | – | 0.0538 | – | 0.066 | 0.102 | – |
| K185W | 0.0852 | 0.116 | 0.0714 | 0.0626 | 0.075 | 0.053 | 0.0589 | 0.0694 | 0.0689 | 0.098 | 0.059 | 0.0786 | 0.0721 | – | 0.0687 | 0.0477 | 0.0664 | 0.0694 | 0.109 | 0.0563 |
